# Reference: the supplement of paper PMC8728848
# The list shows a part of the results.
# B1: Epa23 (Candida glabrata) (protein)
# chain: MGSSHHHHHHSSGLVPRGSHMIPNPFEGTINNFPSGCSPNHGLYNRGLTMELYNYSYIHPQSIQSYFNTSTLKKMEKGQCWDPSYLDVNYPRTGYKTHNRFAKVNGIDGILDFEFNPTRSCVPSKGQLPQNYNYPLQFTLSNFTMLLYGYFKPKVTAKHTFTIFADDLLFLNFGAGNAFDCCQQQDTIDDFGNYQAYALWGSDTQQNTLTVNLDANIYYPIRMFYNNRDFKGALNMYFTTDESNTKINDFSGYLFNIPDSSEGCPAHISYETECGNVSG
# Tests used:
# Experiment in all cases: glycan array binding signal (z-score within array); higher = stronger binding
# Settings in all cases: glycan notation: IUPAC condensed, linker removed
# [1] = biological target: GlcNAc(b1-2)[GlcNAc(b1-4)]Man(a1-3)[GlcNAc(b1-4)][GlcNAc(b1-2)Man(a1-6)]Man(b1-4)GlcNAc(b1-4)GlcNAc
# How it was run: (§1)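 From the Consortium for Functional Glycomics database, 3228 arrays were curated, keeping only those whose protein sequence was available. Binding is given as a within-array Z-score averaged across arrays sharing a protein sequence and across linkers. Negative Z-scores can be read as non-binding.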
# [2] = biological target: GlcNAc(b1-2)[GlcNAc(b1-4)]Man(a1-3)[GlcNAc(b1-4)][GlcNAc(b1-2)[GlcNAc(b1-6)]Man(a1-6)]Man(b1-4)GlcNAc(b1-4)GlcNAc
# How it was run: as §1
# [3] = biological target: GlcNAc(b1-2)[GlcNAc(b1-4)]Man(a1-3)[GlcNAc(b1-4)][GlcNAc(b1-2)[GlcNAc(b1-6)]Man(a1-6)]Man(b1-4)GlcNAc(b1-4)[Fuc(a1-6)]GlcNAc
# How it was run: as §1
# [4] = biological target: GlcNAc(b1-2)[GlcNAc(b1-6)]Man(a1-6)[GlcNAc(b1-2)Man(a1-3)]Man(b1-4)GlcNAc(b1-4)GlcNAc
# How it was run: as §1
# [5] = biological target: GlcNAc(b1-2)[GlcNAc(b1-6)]Man(a1-6)[GlcNAc(b1-2)Man(a1-3)]Man(b1-4)GlcNAc(b1-4)[Fuc(a1-6)]GlcNAc
# How it was run: as §1
# [6] = biological target: GlcNAc(b1-2)[GlcNAc(b1-6)]Man(a1-6)[GlcNAc(b1-4)][GlcNAc(b1-2)Man(a1-3)]Man(b1-4)GlcNAc(b1-4)GlcNAc
# How it was run: as §1
# GlcNAc(b1-3)Fuc = biological target: GlcNAc(b1-3)Fuc
# How it was run: as §1
# GlcNAc(b1-3)Gal = biological target: GlcNAc(b1-3)Gal
# How it was run: as §1
# [7] = biological target: GlcNAc(b1-3)Gal(b1-3)GalNAc
# How it was run: as §1
# GlcNAc(b1-3)Gal(b1-4)Glc = biological target: GlcNAc(b1-3)Gal(b1-4)Glc
# How it was run: as §1
# [8] = biological target: GlcNAc(b1-3)Gal(b1-4)GlcNAc
# How it was run: as §1
# [9] = biological target: GlcNAc(b1-3)Gal(b1-4)GlcNAc(b1-2)Man(a1-3)[GlcNAc(b1-3)Gal(b1-4)GlcNAc(b1-2)Man(a1-6)]Man(b1-4)GlcNAc(b1-4)GlcNAc
# How it was run: as §1
# [10] = biological target: GlcNAc(b1-3)Gal(b1-4)GlcNAc(b1-2)Man(a1-3)[GlcNAc(b1-3)Gal(b1-4)GlcNAc(b1-2)Man(a1-6)]Man(b1-4)GlcNAc(b1-4)[Fuc(a1-6)]GlcNAc
# How it was run: as §1
# [11] = biological target: GlcNAc(b1-3)Gal(b1-4)GlcNAc(b1-2)[GlcNAc(b1-3)Gal(b1-4)GlcNAc(b1-6)]Man(a1-6)[GlcNAc(b1-3)Gal(b1-4)GlcNAc(b1-2)Man(a1-3)]Man(b1-4)GlcNAc(b1-4)GlcNAc
# How it was run: as §1
# [12] = biological target: GlcNAc(b1-3)Gal(b1-4)GlcNAc(b1-3)Gal(b1-4)GlcNAc
# How it was run: as §1
# [13] = biological target: GlcNAc(b1-3)Gal(b1-4)GlcNAc(b1-3)Gal(b1-4)GlcNAc(b1-2)Man(a1-3)[GlcNAc(b1-3)Gal(b1-4)GlcNAc(b1-3)Gal(b1-4)GlcNAc(b1-2)Man(a1-6)]Man(b1-4)GlcNAc(b1-4)GlcNAc
# How it was run: as §1
# [14] = biological target: GlcNAc(b1-3)Gal(b1-4)GlcNAc(b1-3)Gal(b1-4)GlcNAc(b1-2)Man(a1-3)[GlcNAc(b1-3)Gal(b1-4)GlcNAc(b1-3)Gal(b1-4)GlcNAc(b1-2)Man(a1-6)]Man(b1-4)GlcNAc(b1-4)[Fuc(a1-6)]GlcNAc
# How it was run: as §1
# [15] = biological target: GlcNAc(b1-3)Gal(b1-4)GlcNAc(b1-3)Gal(b1-4)GlcNAc(b1-2)[GlcNAc(b1-3)Gal(b1-4)GlcNAc(b1-3)Gal(b1-4)GlcNAc(b1-6)]Man(a1-6)[GlcNAc(b1-3)Gal(b1-4)GlcNAc(b1-3)Gal(b1-4)GlcNAc(b1-2)Man(a1-3)]Man(b1-4)GlcNAc(b1-4)[Fuc(a1-6)]GlcNAc
# How it was run: as §1
# [16] = biological target: GlcNAc(b1-3)Gal(b1-4)GlcNAc(b1-3)Gal(b1-4)GlcNAc(b1-3)Gal(b1-4)GlcNAc(b1-2)Man(a1-3)[GlcNAc(b1-3)Gal(b1-4)GlcNAc(b1-3)Gal(b1-4)GlcNAc(b1-3)Gal(b1-4)GlcNAc(b1-2)Man(a1-6)]Man(b1-4)GlcNAc(b1-4)GlcNAc
# How it was run: as §1
# [17] = biological target: GlcNAc(b1-3)Gal(b1-4)GlcNAc(b1-3)Gal(b1-4)GlcNAc(b1-3)Gal(b1-4)GlcNAc(b1-2)Man(a1-3)[GlcNAc(b1-3)Gal(b1-4)GlcNAc(b1-3)Gal(b1-4)GlcNAc(b1-3)Gal(b1-4)GlcNAc(b1-2)Man(a1-6)]Man(b1-4)GlcNAc(b1-4)[Fuc(a1-6)]GlcNAc
# How it was run: as §1
# [18] = biological target: GlcNAc(b1-3)Gal(b1-4)GlcNAc(b1-3)Gal(b1-4)GlcNAc(b1-3)Gal(b1-4)GlcNAc(b1-2)[GlcNAc(b1-3)Gal(b1-4)GlcNAc(b1-3)Gal(b1-4)GlcNAc(b1-3)Gal(b1-4)GlcNAc(b1-6)]Man(a1-6)[GlcNAc(b1-3)Gal(b1-4)GlcNAc(b1-3)Gal(b1-4)GlcNAc(b1-3)Gal(b1-4)GlcNAc(b1-2)Man(a1-3)]Man(b1-4)GlcNAc(b1-4)[Fuc(a1-6)]GlcNAc
# How it was run: as §1
# [19] = biological target: GlcNAc(b1-3)Gal(b1-4)GlcNAc(b1-3)Gal(b1-4)GlcNAc(b1-3)Gal(b1-4)GlcNAc(b1-3)Gal(b1-4)GlcNAc(b1-2)Man(a1-3)[GlcNAc(b1-3)Gal(b1-4)GlcNAc(b1-3)Gal(b1-4)GlcNAc(b1-3)Gal(b1-4)GlcNAc(b1-3)Gal(b1-4)GlcNAc(b1-2)Man(a1-6)]Man(b1-4)GlcNAc(b1-4)GlcNAc
# How it was run: as §1
# [20] = biological target: GlcNAc(b1-3)Gal(b1-4)GlcNAc(b1-3)Gal(b1-4)GlcNAc(b1-3)Gal(b1-4)GlcNAc(b1-3)Gal(b1-4)GlcNAc(b1-2)Man(a1-3)[GlcNAc(b1-3)Gal(b1-4)GlcNAc(b1-3)Gal(b1-4)GlcNAc(b1-3)Gal(b1-4)GlcNAc(b1-3)Gal(b1-4)GlcNAc(b1-2)Man(a1-6)]Man(b1-4)GlcNAc(b1-4)[Fuc(a1-6)]GlcNAc
# How it was run: as §1
# [21] = biological target: GlcNAc(b1-3)Gal(b1-4)GlcNAc(b1-3)Gal(b1-4)GlcNAc(b1-3)Gal(b1-4)GlcNAc(b1-3)Gal(b1-4)GlcNAc(b1-2)[GlcNAc(b1-3)Gal(b1-4)GlcNAc(b1-3)Gal(b1-4)GlcNAc(b1-3)Gal(b1-4)GlcNAc(b1-3)Gal(b1-4)GlcNAc(b1-6)]Man(a1-6)[GlcNAc(b1-3)Gal(b1-4)GlcNAc(b1-3)Gal(b1-4)GlcNAc(b1-3)Gal(b1-4)GlcNAc(b1-3)Gal(b1-4)GlcNAc(b1-2)Man(a1-3)]Man(b1-4)GlcNAc(b1-4)[Fuc(a1-6)]GlcNAc
# How it was run: as §1
# [22] = biological target: GlcNAc(b1-3)Gal(b1-4)GlcNAc(b1-3)Gal(b1-4)GlcNAc(b1-3)GalNAc
# How it was run: as §1
# [23] = biological target: GlcNAc(b1-3)Gal(b1-4)GlcNAc(b1-3)GalNAc
# How it was run: as §1
# [24] = biological target: GlcNAc(b1-3)Gal(b1-4)GlcNAc(b1-3)[GlcNAc(b1-3)Gal(b1-4)GlcNAc(b1-3)]GalNAc
# How it was run: as §1
# [25] = biological target: GlcNAc(b1-3)Gal(b1-4)GlcNAc(b1-6)[Gal(b1-3)]GalNAc
# How it was run: as §1
# [26] = biological target: GlcNAc(b1-3)Gal(b1-4)GlcNAc(b1-6)[GlcNAc(b1-3)Gal(b1-3)]GalNAc
# How it was run: as §1
# [27] = biological target: GlcNAc(b1-3)Gal(b1-4)GlcNAc(b1-6)[GlcNAc(b1-3)]Gal(b1-4)GlcNAc
# How it was run: as §1
# GlcNAc(b1-3)GalNAc = biological target: GlcNAc(b1-3)GalNAc
# How it was run: as §1
# GlcNAc(b1-3)Man = biological target: GlcNAc(b1-3)Man
# How it was run: as §1
# [28] = biological target: GlcNAc(b1-3)[GlcNAc(b1-4)][GlcNAc(b1-6)]GlcNAc
# How it was run: as §1
# [29] = biological target: GlcNAc(b1-3)[GlcNAc(b1-6)]Gal(b1-4)GlcNAc
# How it was run: as §1
# [30] = biological target: GlcNAc(b1-3)[GlcNAc(b1-6)]GalNAc
# How it was run: as §1
# [31] = biological target: GlcNAc(b1-4)Gal(b1-4)GlcNAc
# How it was run: as §1
# GlcNAc(b1-4)GlcNAc = biological target: GlcNAc(b1-4)GlcNAc
# How it was run: as §1
# [32] = biological target: GlcNAc(b1-4)GlcNAc(b1-4)GlcNAc
# How it was run: as §1
binder,measurement,setting,value
B1,glycan array binding signal (z-score),[1],-0.119
same,glycan array binding signal (z-score),[2],-0.258
same,glycan array binding signal (z-score),[3],-0.14
same,glycan array binding signal (z-score),[4],-0.187
same,glycan array binding signal (z-score),[5],-0.233
same,glycan array binding signal (z-score),[6],-0.185
same,glycan array binding signal (z-score),GlcNAc(b1-3)Fuc,-0.214
same,glycan array binding signal (z-score),GlcNAc(b1-3)Gal,-0.272
same,glycan array binding signal (z-score),[7],-0.149
same,glycan array binding signal (z-score),GlcNAc(b1-3)Gal(b1-4)Glc,-0.101
same,glycan array binding signal (z-score),[8],-0.198
same,glycan array binding signal (z-score),[9],-0.24
same,glycan array binding signal (z-score),[10],-0.199
same,glycan array binding signal (z-score),[11],-0.14
same,glycan array binding signal (z-score),[12],-0.193
same,glycan array binding signal (z-score),[13],-0.159
same,glycan array binding signal (z-score),[14],-0.176
same,glycan array binding signal (z-score),[15],-0.093
same,glycan array binding signal (z-score),[16],-0.203
same,glycan array binding signal (z-score),[17],-0.184
same,glycan array binding signal (z-score),[18],-0.144
same,glycan array binding signal (z-score),[19],-0.247
same,glycan array binding signal (z-score),[20],-0.038
same,glycan array binding signal (z-score),[21],-0.111
same,glycan array binding signal (z-score),[22],-0.211
same,glycan array binding signal (z-score),[23],-0.215
same,glycan array binding signal (z-score),[24],-0.21
same,glycan array binding signal (z-score),[25],-0.112
same,glycan array binding signal (z-score),[26],-0.239
same,glycan array binding signal (z-score),[27],-0.301
same,glycan array binding signal (z-score),GlcNAc(b1-3)GalNAc,-0.243
same,glycan array binding signal (z-score),GlcNAc(b1-3)Man,-0.279
same,glycan array binding signal (z-score),[28],-0.227
same,glycan array binding signal (z-score),[29],-0.251
same,glycan array binding signal (z-score),[30],-0.183
same,glycan array binding signal (z-score),[31],-0.188
same,glycan array binding signal (z-score),GlcNAc(b1-4)GlcNAc,-0.311
same,glycan array binding signal (z-score),[32],-0.263
